Data: patent US9662372B2 (priority 2013, dated 2017)

How the values were obtained:
CHO-k1 cells [1] = test: Toxicity of the polypeptides alone to the cultured cells; type: cell-based; conditions: for Cytotoxicity when given alone: at higher concentrations
CHO-k1 cells [2] = test: PM substrate control: influence of substrate on CHO-k1 dye reduction rate; type: cell-based

poly-D-lysine
Cytotoxicity when given alone (CHO-k1 cells [1]): some cytotoxicity

poly-L-lysine
Cytotoxicity when given alone (CHO-k1 cells [1]): some cytotoxicity

O=C[C@H](O)[C@@H](O)[C@H](O)[C@H](O)CO [D-glucose]
Ratio (panel average rate divided by well average rate) (CHO-k1 cells [2]; PM1 C9): 0.9547 | Dye reduction rate, substrate control (CHO-k1 cells [2]; PM1 C9, no C. difficile, panel average 74.93): 78.48

protamine
Toxicity to the cultured cells (CHO-k1 cells [1]; compared with poly-L-lysine and poly-D-lysine): much less toxic
